Data as given in patent US20240141042A1 (INNATE PHARMA, published 2024).

How the values were obtained:
human FcRn (Example 10) = target: T1, human FcRn (Example 10) (human, UniProt P55899 part only; P61769 part only, limits assumed); assay: SPR, FcRn immobilized on CM5, Steady State
T1 construct: Construct not described; Beta-2-microglobulin is not mentioned; also called recombinant FcRn proteins

[1] = target: T2, Human NKp46 recombinant proteins (human, UniProt O76036 22-258); assay: SPR, bispecific captured on Protein-A chip, human NKp46 injected, 1:1 kinetic model
T2 construct: also called recombinant human NKp46 proteins
T2 sequence: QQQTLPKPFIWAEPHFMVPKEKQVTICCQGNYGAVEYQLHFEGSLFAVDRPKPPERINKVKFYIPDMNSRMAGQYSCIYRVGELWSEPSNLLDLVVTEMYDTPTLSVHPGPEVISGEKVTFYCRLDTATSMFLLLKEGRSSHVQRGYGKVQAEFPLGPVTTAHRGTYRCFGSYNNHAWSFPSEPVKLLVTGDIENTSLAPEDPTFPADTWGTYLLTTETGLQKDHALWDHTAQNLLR
Protocol: SPR measurements were performed on a Biacore T100 apparatus (Biacore GE Healthcare) at 25° C. In all Biacore experiments HBS-EP+(Biacore GE Healthcare) and NaOH 10 mM served as running buffer and regeneration buffer respectively. Sensorgrams were analyzed with Biacore T100 Evaluation software. Protein-A was purchase from (GE Healthcare). Human NKp46 recombinant proteins were cloned, produced and purified at Innate Pharma.
Protein-A proteins were immobilized covalently to carboxyl groups in the dextran layer on a Sensor Chip CM5. The chip surface was activated with EDC/NHS (N-ethyl-N′-(3-dimethylaminopropyl) carbodiimidehydrochloride and N-hydroxysuccinimide (Biacore GE Healthcare)). Protein-A was diluted to 10 μg/ml in coupling buffer (10 mM acetate, pH 5.6) and injected until the appropriate immobilization level was reached (i.e. 2000 RU). Deactivation of the remaining activated groups was performed using 100 mM ethanolamine pH 8 (Biacore GE Healthcare).
Monovalent affinity study was done following a regular Capture-Kinetic protocol recommended by the manufacturer (Biacore GE Healthcare kinetic wizard). Seven serial dilutions of human NKp46 recombinant proteins, ranging from 6.25 to 400 nM were sequentially injected over the captured Bi-Specific antibodies and allowed to dissociate for 10 min before regeneration. The entire sensorgram sets were fitted using the 1:1 kinetic binding model.

Chain of human FcRn (Example 10) (P55899 24-297 limits assumed, form in doubt, chain 1 of 2): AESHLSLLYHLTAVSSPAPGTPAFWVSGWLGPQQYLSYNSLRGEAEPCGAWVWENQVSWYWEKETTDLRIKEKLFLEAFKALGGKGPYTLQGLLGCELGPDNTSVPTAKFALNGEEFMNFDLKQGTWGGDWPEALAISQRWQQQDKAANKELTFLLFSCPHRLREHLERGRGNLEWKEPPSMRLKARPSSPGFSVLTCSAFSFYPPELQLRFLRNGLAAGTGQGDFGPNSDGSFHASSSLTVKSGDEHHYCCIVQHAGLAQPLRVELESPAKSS
Chain of human FcRn (Example 10) (P61769 21-119 limits assumed, form in doubt, chain 2 of 2, further chain): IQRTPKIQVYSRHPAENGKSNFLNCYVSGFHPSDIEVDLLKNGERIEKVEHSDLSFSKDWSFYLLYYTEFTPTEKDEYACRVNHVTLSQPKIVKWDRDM

B1: CD19-F3-NKp46-3 (bispecific antibody)
chain: DIQLTQSPASLAVSLGQRATISCKASQSVDYDGDSYLNWYQQIPGQPPKLLIYDASNLVSGIPPRFSGSGSGTDFTLNIHPVEKVDAATYHCQQSTEDPWTFGGGTKLEIKGGGGSGGGGSGGGGSQVQLQQSGAELVRPGSSVKISCKASGYAFSSYWMNWVKQRPGQGLEWIGQIWPGDGDTNYNGKFKGKATLTADESSSTAYMQLSSLASEDSAVYFCARRETTTVGRYYYAMDYWGQGTTVTVSSGGGSS[sequence of human IgG1 Fc not given]GGGGSGGGGSGGGGSGQPREPQVYTLPPSREEMTKNQVSLTCLVKGFYPSDIAVEWESNGQPENNYKTTPPVLDSDGSFFLYSKLTVDKSRWQQGNVFSCSVMHEALHNHYTQKSLSLSPGSTGSEVQLQQSGPELVKPGASVKISCKTSGYTFTEYTMHWVKQSHGKSLEWIGGISPNIGGTSYNQKFKGKATLTVDKSSSTAYMELRSLTSEDSAVYYCARRGGSFDYWGQGTTLTVSSVEGGSGGSGGSGGSGGVDDIVMTQSPATLSVTPGDRVSLSCRASQSISDYLHWYQQKSHESPRLLIKYASQSISGIPSRFSGSGSGSDFTLSINSVEPEDVGVYYCQNGHSFPLTFGAGTKLELK
notes: Single chain with tandem CH3
Kd (human FcRn (Example 10)): 474 nM | Kd [1]: 28 nM | koff [1]: 0.0112 s⁻¹ | kon [1]: 390000 M⁻¹ s⁻¹
